Reference: patent publication US12006294B2, “Therapeutic compounds” (REGENTS OF THE UNIVERSITY OF MINNESOTA, priority 2017, dated 2024)
“And” between values parts separate entries of the source, which are not always exact repeats. Identical values can stand only once. Counter-ions that a name gives are not always drawn. The name of at least one read-out is uncertain.

System: mice
Assay: Tail flick assay (analgesic potency)
Type: in vivo

N=C(N)NNCc1c(Cl)cccc1Cl [JM2-185-2]
Tail flick latency % MPE, Mean (2 mg/kg subcutaneous, 15 min): 13.0 % MPE | Tail flick latency % MPE, Mean (2 mg/kg subcutaneous, 30 min): 7.1 % MPE | Tail flick latency % MPE, Mean (2 mg/kg subcutaneous, 45 min): −4.3 % MPE | Tail flick latency % MPE, Mean (2 mg/kg subcutaneous, 60 min): 5.0 % MPE

N=C(N)N/N=C/c1c(Cl)cc(OCc2ccccc2)cc1Cl [JM2-195-2, (E)-2-(4-(benzyloxy)-2,6-dichlorobenzylidene)hydrazine-1-carboximidamide acetate]
Tail flick latency % MPE, Mean (2 mg/kg subcutaneous, 15 min): 15.9 % MPE | Tail flick latency % MPE, Mean (2 mg/kg subcutaneous, 30 min): 6.3 % MPE | Tail flick latency % MPE, Mean (2 mg/kg subcutaneous, 45 min): 6.2 % MPE | Tail flick latency % MPE, Mean (2 mg/kg subcutaneous, 60 min): 6.2 % MPE

Cl.Clc1cccc(Cl)c1/C=N/NC1=NCCCN1 [JM2-255-2, (E)-2-(2-(2,6-dichlorobenzylidene)hydrazinyl)-1,4,5,6-tetrahydropyrimidine hydrochloride]
Tail flick latency % MPE, Mean (2 mg/kg subcutaneous, 15 min): 9.4 % MPE | Tail flick latency % MPE, Mean (2 mg/kg subcutaneous, 30 min): 17.3 % MPE | Tail flick latency % MPE, Mean (2 mg/kg subcutaneous, 45 min): 15.1 % MPE | Tail flick latency % MPE, Mean (2 mg/kg subcutaneous, 60 min): 11.7 % MPE

Cc1cccc(C)c1/C=N/NC1=NCCCN1 [JM2-257-2, (E)-2-(2-(2,6-dichlorobenzylidene)hydrazinyl)-1,4,5,6-tetrahydropyrimidine hydrochloride]
Tail flick latency % MPE, Mean (2 mg/kg subcutaneous, 15 min): 14.0 % MPE | Tail flick latency % MPE, Mean (2 mg/kg subcutaneous, 30 min): 2.9 % MPE | Tail flick latency % MPE, Mean (2 mg/kg subcutaneous, 45 min): 8.1 % MPE | Tail flick latency % MPE, Mean (2 mg/kg subcutaneous, 60 min): 9.8 % MPE

Clc1cccc(Cl)c1CC1=NCCCN1 [JM2-271-2, 2-(2,6-dichlorobenzyl)-1,4,5,6-tetrahydropyrimidine]
Tail flick latency % MPE, Mean (2 mg/kg subcutaneous, 15 min): 5.4 % MPE | Tail flick latency % MPE, Mean (2 mg/kg subcutaneous, 30 min): 8.4 % MPE | Tail flick latency % MPE, Mean (2 mg/kg subcutaneous, 45 min): 15.6 % MPE | Tail flick latency % MPE, Mean (2 mg/kg subcutaneous, 60 min): 2.9 % MPE

Cl.N=C(N)NC(=O)Cc1c(Cl)cccc1[N+](=O)[O-] [JM2-275-2, N-carbamimidoyl-2-(2-chloro-6-nitrophenyl)acetamide hydrochloride]
Tail flick latency % MPE, Mean (2 mg/kg subcutaneous, 15 min): 4.9 % MPE | Tail flick latency % MPE, Mean (2 mg/kg subcutaneous, 30 min): 2.8 % MPE | Tail flick latency % MPE, Mean (2 mg/kg subcutaneous, 45 min): 4.9 % MPE | Tail flick latency % MPE, Mean (2 mg/kg subcutaneous, 60 min): 5.0 % MPE

Cl.N=C(N)NC(=O)Cc1c(Cl)cccc1Cl [JM2-287-2, N-carbamimidoyl-2-(2,6-dichlorophenyl)acetamide hydrochloride]
Tail flick latency % MPE, Mean (2 mg/kg subcutaneous, 15 min): 4.8 % MPE | Tail flick latency % MPE, Mean (2 mg/kg subcutaneous, 30 min): 11.2 % MPE | Tail flick latency % MPE, Mean (2 mg/kg subcutaneous, 45 min): 22.9 % MPE | Tail flick latency % MPE, Mean (2 mg/kg subcutaneous, 60 min): 41.0 % MPE

N=C(N)N/N=C/c1cc(Cl)ccc1Cl [JM3-11-2, (E)-2-(2,5-dichlorobenzylidene)hydrazine-1-carboximidamide acetate]
Tail flick latency % MPE, Mean (2 mg/kg subcutaneous, 15 min): 7.0 % MPE | Tail flick latency % MPE, Mean (2 mg/kg subcutaneous, 30 min): 10.5 % MPE | Tail flick latency % MPE, Mean (2 mg/kg subcutaneous, 45 min): 5.5 % MPE | Tail flick latency % MPE, Mean (2 mg/kg subcutaneous, 60 min): 5.2 % MPE

N=C(N)N/N=C/c1ccccc1O [JM3-17-2, (E)-2-(2-hydroxybenzylidene)hydrazine-1-carboximidamide acetate]
Tail flick latency % MPE, Mean (2 mg/kg subcutaneous, 15 min): 14.6 % MPE | Tail flick latency % MPE, Mean (2 mg/kg subcutaneous, 30 min): 6.9 % MPE | Tail flick latency % MPE, Mean (2 mg/kg subcutaneous, 45 min): −1.2 % MPE | Tail flick latency % MPE, Mean (2 mg/kg subcutaneous, 60 min): 1.0 % MPE

N=C(N)N/N=C/c1ccc(Br)cc1Cl [JM3-57-2, (E)-2-(4-bromo-2-chlorobenzylidene)hydrazine-1-carboximidamide acetate]
Tail flick latency % MPE, Mean (2 mg/kg subcutaneous, 15 min): 7.7 % MPE | Tail flick latency % MPE, Mean (2 mg/kg subcutaneous, 30 min): 5.6 % MPE | Tail flick latency % MPE, Mean (2 mg/kg subcutaneous, 45 min): 9.0 % MPE | Tail flick latency % MPE, Mean (2 mg/kg subcutaneous, 60 min): 3.2 % MPE

CCc1cccc(Cl)c1/C=N/NC(=N)N [JM3-81-2, (E)-2-(2-chloro-6-ethylbenzylidene)hydrazine-1-carboximidamide acetate]
Tail flick latency % MPE, Mean (2 mg/kg subcutaneous, 15 min): 3.6 % MPE | Tail flick latency % MPE, Mean (2 mg/kg subcutaneous, 30 min): 17.4 % MPE | Tail flick latency % MPE, Mean (2 mg/kg subcutaneous, 45 min): 9.4 % MPE | Tail flick latency % MPE, Mean (2 mg/kg subcutaneous, 60 min): 5.1 % MPE | Tail flick latency % MPE, Mean (10 mg/kg, 15 min): 55.9 % MPE | Tail flick latency % MPE, Mean (10 mg/kg, 30 min): 59.3 % MPE | Tail flick latency % MPE, Mean (10 mg/kg, 45 min): 68.0 % MPE | Tail flick latency % MPE, Mean (10 mg/kg, 60 min): 76.2 % MPE

CC(C)c1cccc(Cl)c1/C=N/NC(=N)N [JM3-89-2, (E)-2-(2-chloro-6-isopropylbenzylidene)hydrazine-1-carboximidamide acetate]
Tail flick latency % MPE, Mean (2 mg/kg subcutaneous, 15 min): 7.9 % MPE | Tail flick latency % MPE, Mean (2 mg/kg subcutaneous, 30 min): 10.6 % MPE | Tail flick latency % MPE, Mean (2 mg/kg subcutaneous, 45 min): 8.4 % MPE | Tail flick latency % MPE, Mean (2 mg/kg subcutaneous, 60 min): 5.3 % MPE

N=C(N)N/N=C/c1c(C(F)(F)F)cccc1C(F)(F)F [JM3-141-2, (E)-2-(2,6-bis(trifluoromethyl)benzylidene)hydrazine-1-carboximidamide acetate]
Tail flick latency % MPE, Mean (2 mg/kg subcutaneous, 30 min, acetate): 27.0 % MPE and 45.5 % MPE | Tail flick latency % MPE, Mean (2 mg/kg subcutaneous, 60 min, acetate): 26.3 % MPE and 41.0 % MPE

N=C(N)N/N=C/Cc1c(Cl)cccc1Cl [JM3-239-2, (E)-2-(2-(2,6-dichlorophenyl)ethylidene)hydrazine-1-carboximidamide acetate]
Tail flick latency % MPE, Mean (2 mg/kg subcutaneous, 15 min): 16.6 % MPE | Tail flick latency % MPE, Mean (2 mg/kg subcutaneous, 30 min): 7.4 % MPE | Tail flick latency % MPE, Mean (2 mg/kg subcutaneous, 45 min): 2.0 % MPE | Tail flick latency % MPE, Mean (2 mg/kg subcutaneous, 60 min): 2.2 % MPE
